Test results reported in PubChem BioAssay AID624296 (National Center for Advancing Translational Sciences (NCATS), 2012).
Hit rate of the full screen: of about 350,000 compounds, about 9,900 (2.8%) were called active. This list was built around the results that the source calls inconclusive (neither active nor inactive); the mix of calls is not that of the screen. Calls come from the whole dose curve; as a rule, active = well fitted activation curve with a large enough effect; inconclusive = small, poorly fitted or top-dose-only effect; inactive = no such curve, though single readings can be large or run the other way. Potencies of inconclusive entries are left out as doubtful fits.

assay: A quantitative high throughput screen for small molecules that induce DNA re-replication in MCF 10a normal breast cells.; note: nearly all actives have a fitted effect of over 50% in size; for activity, positive = re-replication: % of control where 0% means no effect; conditions: MCF 10A DNA re-replication, Hoechst nuclear intensity, 48 h; activity, positive = re-replication: at 46.1 µM (top of the series)
Potency is the fitted concentration of half-maximal effect; tags give direction and shape of the fitted curve.

For CC(C(=O)Nc1ccc(F)c(F)c1F)N(C)Cc1cccs1 (configuration not stated), which “activity, positive = re-replication” value is on record?
Its value is inactive: 8.13%.

Which Potency does the source give for COc1ccc(-c2cc(C(F)(F)F)nc(S(C)(=O)=O)n2)cc1 here?
Its Potency is inconclusive [activator, full curve, poor fit].

For O=C(Nc1ccc(Cl)cn1)c1ccc([N+](=O)[O-])o1, which Potency is on record?
The Potency was active: 11.6 µM.

For COc1ccccc1OCCCn1cc(C#N)c2ccccc21, which “activity, positive = re-replication” value is on record?
The value was inactive: 9.66%.

For COC(=O)C1=CN(Cc2ccc(OC)c(OC)c2)C=C(C(=O)OC)C1c1cccs1, which Potency is on record?
The Potency was inconclusive [activator, single point].

Which Potency does the source give for COc1ccc(-c2c(-c3cc(OC)c(OC)c(OC)c3)noc2C)cn1 here?
The Potency was active: 1.64 µM.

For Cc1ccc(N2C(=O)N(CC(=O)Nc3c(C)cc(C)cc3Cl)C(=O)C2C)cc1 (configuration not stated), which Potency is on record?
Its Potency is inconclusive [activator, full curve, poor fit].

With O=C(Nc1ccccc1Cl)Nc1ccnn1C1CCN(C(=O)c2cscn2)CC1 as the compound, how does the Potency read?
The Potency was inconclusive [activator, single point].

For N#Cc1ccccc1NC(=O)CNc1ccccc1N1CCCCC1, which Potency is on record?
Its Potency is inconclusive [activator, partial curve, poor fit].

Which Potency does the source give for COc1cccc(C(=O)NCc2ccc3[nH]c(C)cc3c2)c1 here?
Its Potency is inconclusive [activator, single point].

With CCOc1ccc(C2C(C#N)=C(N)Oc3cc(C)[nH]c(=O)c32)cc1OC (configuration not stated) as the compound, how does the Potency read?
The Potency was inconclusive [activator, single point].

With CCn1ncc(Br)c1C(=O)N(C)C12CC3CC(CC(C3)C1)C2 as the compound, how does the Potency read?
Its Potency is inconclusive [activator, partial curve, poor fit].

With O=C(CNc1ccc(Br)cc1)NNC1=NCCC1 as the compound, how does the Potency read?
Its Potency is inconclusive [activator, single point].

With Cc1ccccc1C(=O)Nc1scc(-c2ccc(Br)cc2)c1C(=O)O as the compound, how does the “activity, positive = re-replication” value read?
The value was inactive: 11.4%.

Which Potency does the source give for CCN(C(=O)c1cc([N+](=O)[O-])ccc1NCc1cccnc1)c1ccccc1 here?
Its Potency is inconclusive [activator, single point].

With O=C(NCCCN1CCOCC1)c1ccc(CSc2ccc(Cl)cc2)cc1 as the compound, how does the Potency read?
The Potency was inconclusive [activator, partial curve, poor fit].

For CCN(CC)CCNC(=O)c1cn(CC)c2cc(N3CCN(C)CC3)c(F)cc2c1=O, which Potency is on record?
Its Potency is inconclusive [activator, partial curve, poor fit].

With CC1(C)C(=O)CCC2(C)C1=CCC1C2C(=O)CC2(C)C1CCC2(O)C(=O)CO (configuration not stated) as the compound, how does the “activity, positive = re-replication” value read?
Its value is inactive: -0.698%.

Which “activity, positive = re-replication” value does the source give for O=C(COC(=O)/C=C/c1ccc([N+](=O)[O-])cc1)Nc1ccc2[nH]c(=O)[nH]c2c1 here?
The value was inactive: -2.43%.

With CCC1C(=O)C(CC)C(c2ccccc2)NC1c1ccccc1 (configuration not stated) as the compound, how does the Potency read?
Its Potency is inconclusive [activator, single point].

For Cc1c(N=Cc2ccco2)c(=O)n(-c2ccccc2)n1C, which “activity, positive = re-replication” value is on record?
The value was inactive: -12.6%.

Which Potency does the source give for O=C(NCC1CCCO1)c1coc2nc3ccccc3nc12 (configuration not stated) here?
The Potency was active: 20.6 µM.

With Cc1c(CC(=O)N2CCN(C(=O)C3COc4ccccc4O3)CC2)c(=O)oc2cc(O)ccc12 (configuration not stated) as the compound, how does the “activity, positive = re-replication” value read?
The value was inactive: 0.0858%.

For Cc1ccc(CSCCNC(=O)/C=C/c2ccccc2Cl)cc1, which Potency is on record?
The Potency was inconclusive [activator, single point].

Which Potency does the source give for CCN(CC)CCn1c(NC(=O)c2ccc(Cl)cc2)nc2ccccc21 here?
The Potency was inconclusive [activator, partial curve].

Which Potency does the source give for Cn1c(SCC(=O)N/N=C/C=C/c2ccco2)nc2ccccc21 here?
Its Potency is inconclusive [activator, single point].

Which “activity, positive = re-replication” value does the source give for CC1CCN(C(=O)c2ccc(NC(=O)c3ccccc3)cc2)CC1 here?
The value was inactive: 2.75%.

For COc1cccc(NC(=O)n2ncc3c(C)cccc32)c1, which “activity, positive = re-replication” value is on record?
The value was inactive: 0.15%.

With Cc1ccc(S(=O)(=O)N2CCC(C(=O)N/N=C/c3cccnc3)CC2)cc1 as the compound, how does the “activity, positive = re-replication” value read?
The value was inactive: 1.75%.

Which “activity, positive = re-replication” value does the source give for Cc1cc(C(=O)NNC(=O)c2ccc(NC(=O)CC#N)cc2)c(C)o1 here?
Its value is inactive: 0.776%.

Which Potency does the source give for Cc1ccc(/C=N/Nc2nncn2N)cc1 here?
The Potency was inconclusive [activator, single point].

For O=[N+]([O-])C(=C1Nc2ccccc2N1)C(Cl)=C(Cl)Cl, which Potency is on record?
Its Potency is inconclusive [activator, partial curve, poor fit].

For O=C1CC(C(=O)Nc2ccccc2)C2(CCCCC2)O1 (configuration not stated), which “activity, positive = re-replication” value is on record?
Its value is inactive: -9.64%.

For CC(=O)OCC(=O)C12OC(C)(C)OC1CC1C3CC=C4CC(O)CCC4(C)C3CCC12C (configuration not stated), which Potency is on record?
Its Potency is inconclusive [activator, single point].

For CCN1CC(=O)Nc2cc(S(=O)(=O)N3CCOCC3)ccc21, which Potency is on record?
The Potency was inconclusive [activator, partial curve, poor fit].

With Cc1ccc(C)c(N(CC(=O)NC2CCCC2)C(=O)c2cc3cc4cccc(C)c4nc3s2)c1 as the compound, how does the “activity, positive = re-replication” value read?
The value was inactive: -10.6%.

For Fc1cccc(Nc2nc(-c3ccncc3)nc3ccccc23)c1, which Potency is on record?
Its Potency is inconclusive [activator, partial curve, poor fit].

For CC(C)(C)OC(=O)N1CCC(C(=O)Nc2ccc3c(c2)CCC3)CC1, which Potency is on record?
Its Potency is inconclusive [activator, partial curve, poor fit].

Which “activity, positive = re-replication” value does the source give for O=C(Nc1nnc(Cc2ccccc2)s1)C1CCN(C(=O)c2ccco2)CC1 here?
The value was inactive: -0.859%.

Which Potency does the source give for CCC(C)(C(=O)NC1CCCC1)N(C(=O)CC1NC(=O)NC1=O)c1ccc(C)cc1 (configuration not stated) here?
Its Potency is inconclusive [activator, partial curve, poor fit].

Which “activity, positive = re-replication” value does the source give for Cc1c(NC(=O)c2cc(-c3ccc(F)cc3)on2)c(=O)n(-c2ccccc2)n1C here?
Its value is inactive: -2.26%.

With C=CC[C@@H](CC(=O)N(CCO)Cc1ccccc1)C(=O)NC[C@@H](OC(=O)[C@@H](CC=C)Cc1ccc(F)cc1)c1ccccc1 as the compound, how does the Potency read?
Its Potency is inconclusive [activator, partial curve, poor fit].

For Cc1occc1C(=O)Nc1ccc([N+](=O)[O-])cc1Br, which “activity, positive = re-replication” value is on record?
Its value is inactive: 7.26%.

With COc1cccc(-n2cnc3sc(C)cc3c2=O)c1 as the compound, how does the “activity, positive = re-replication” value read?
Its value is inactive: -8.99%.

With CN(C)C(=O)NC(Nc1cccc([N+](=O)[O-])c1)C(Cl)(Cl)Cl (configuration not stated) as the compound, how does the “activity, positive = re-replication” value read?
The value was inactive: -4.25%.

Which “activity, positive = re-replication” value does the source give for O=C1C2CCCN2C(c2ccc(F)cc2)N1c1ccc(Cl)cc1 (configuration not stated) here?
Its value is inactive: 7.98%.

With Cc1cc(NC(=O)c2ccco2)c(=O)n(Cc2cccc(C(F)(F)F)c2)c1 as the compound, how does the Potency read?
Its Potency is inconclusive [activator, single point].
